According to PubChem BioAssay AID504832 (National Center for Advancing Translational Sciences (NCATS), 2011):
“And” between values parts separate entries of the source, which are not always exact repeats. Equal values may be shown once. Hit rate of the full screen: of about 310,000 compounds, about 18,000 (5.8%) were called active. The shares of active, inactive and inconclusive entries below differ from those in the screen. The call rests on the fitted dose curve; in most records, active means well fitted inhibition curve with a large enough effect; inconclusive means small, poorly fitted or top-dose-only effect, or another doubt; inactive means no such curve, though single readings can be large or run the other way. No potency is given beside an inconclusive call; the fits are too rough.

assay: Primary qHTS for delayed death inhibitors of the malarial parasite plastid, 48 hour incubation; conditions: P. falciparum luciferase growth in erythrocytes; series mostly up to 28.7 µM
Procedure, shortened: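 A one-generation exposure of luciferase-tagged malaria parasites in RPMI 1640/Albumax erythrocyte culture, 37 C and 5% CO2. Inhibition is inferred from decreased luminescence after adding detection reagent.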
Potency means the concentration at half of the fitted maximal effect; tags describe the fitted curve by direction and shape.

Row | SMILES | Potency
1 | Fc1ccc(CSc2ncnc3scc(-c4ccccc4)c23)cc1 | inconclusive [inhibitor, single point]
2 | C#CCN1C(C)=C(C(=O)OC)C(c2cccc([N+](=O)[O-])c2)C(C(=O)OCC)=C1C (stereo not given) | active: 13.1 µM
3 | COc1cc(/C=N/NC(=O)C(=O)/C=C2\NC(C)(C)Cc3ccccc32)ccc1O | inconclusive [inhibitor, single point]
4 | CCCn1c(O)c(N=NC(=O)CNC(=O)c2cccnc2)c2ccccc21 | inactive
5 | CCN1CCN(c2nc(Nc3ccc(C)c(C)c3)nc(N)c2[N+](=O)[O-])CC1 | inconclusive [inhibitor, partial curve, poor fit]
6 | COCCn1c(SCC(=O)NC2CCCC2)nnc1-c1ccncc1 | inconclusive [inhibitor, partial curve, poor fit]
7 | O=C(c1cc2cc(F)ccc2[nH]1)N1CCC2(CC1)OCCO2 | inconclusive [inhibitor, single point]
8 | CCOC(=O)N1CCC(NC(=O)c2cc(COc3c(C)cccc3C)on2)CC1 | inconclusive [inhibitor, single point]
9 | O=C(NC(c1cccnc1)C(F)(F)F)c1cc(COc2ccc3c(c2)CCCC3)on1 (stereo not given) | inconclusive [inhibitor, single point]
10 | COc1ccc(-c2nn(-c3ccccc3)cc2CNCc2cccnc2)c(F)c1 | inconclusive [inhibitor, single point]
11 | CCN1C(=O)[C@H]2[C@@H](c3ccc(SC4CCCCC4)c(OC)c3)N3CCCC[C@@]3(C(=O)OC)[C@H]2C1=O | active: 3.7 µM
12 | C=CC[C@]12CCc3ccccc3C1N(c1ccc(C(=O)OCC)cc1)C2=O (stereo not given in full) | active: 13.1 µM
13 | CCOc1ccccc1-c1cc(C(=O)Nc2ccc(C(=O)O)cc2)c2ccccc2n1 | inconclusive [inhibitor, single point]
14 | COCCNC(=O)/C(C#N)=C/c1ccc(O)cc1 | inactive
15 | COc1ccc(-c2nn(-c3ccccc3)cc2/C=N/NC(=S)NC(C)C)cc1OC | inconclusive [inhibitor, single point]
16 | OCc1cc(C(O)CNCCCCCCOCCCCc2ccccc2)ccc1O (stereo not given) | active: 15.1 µM and active: 13.1 µM
17 | O=C(NNC(=O)C1CCCC1)c1ccc(F)cc1 | inactive
18 | CC(=O)Nc1cccc(C(=O)N(Cc2ccccc2)Cc2ccccc2)c1 | inactive
19 | CCOC(=O)c1cc(C(C)=O)c(=O)[nH]c1C | inactive
20 | COc1cnc(SC)nc1Nc1ccc(C#N)cc1 | inconclusive [inhibitor, partial curve, poor fit]
21 | Cc1nc(Cl)c(C(=O)NC(C)(C)C)c(C)c1Cl | inactive
22 | CCOC(=O)C1CCCN(C(=O)c2ccc(Cn3c(=S)[nH]c4cc(C(=O)OC)ccc4c3=O)cc2)C1 (stereo not given) | inconclusive [inhibitor, partial curve]
23 | CN(C)c1ccc(N=Cc2ccco2)cc1 | active: 0.828 µM
24 | CC1CCCc2sc3nc(NCc4ccco4)n4ncnc4c3c21 (stereo not given) | inconclusive [inhibitor, single point]

Row | SMILES | Potency
25 | CCOC(=O)N1CCC(NC(=O)C2CCN(C(=O)N3CC(C)Oc4ccc(C)cc43)CC2)CC1 (stereo not given) | inconclusive [inhibitor, single point]
26 | COC(=O)C1=C(c2ccc(OC(F)(F)F)cc2)C[C@@H]2CC[C@H]1N2C(=O)NCCOc1ccccc1Cl | active: 10.4 µM
27 | CN1CCN(C(=O)CCCN2C(=O)/C(=C/c3ccccc3)SC2=S)CC1 | inconclusive [inhibitor, partial curve]
28 | O=C(Nc1ccc(Cl)c(C(F)(F)F)c1)C1CCCN(S(=O)(=O)c2cnc[nH]2)C1 (stereo not given) | inconclusive [inhibitor, partial curve, poor fit]
29 | CCCCCCCN1C2=NCCCN2c2ccccc21 | active: 2.94 µM
30 | O=C(Cn1c(=O)oc2ccccc21)Nc1nc(-c2ccc(Br)cc2)cs1 | inactive
31 | O=C(NC1CCCC1)C(c1cccs1)N(C(=O)c1ccco1)c1ccc2c(c1)OCCO2 (stereo not given) | inconclusive [inhibitor, partial curve]
32 | CC(=O)Nc1ccc(/C(C)=N/NC(=O)c2ccccc2Cl)cc1 | inactive
33 | COc1ccc(S(=O)(=O)N(C)C)cc1NC(=O)Cc1ccc(S(=O)(=O)N2CCOCC2)s1 | inconclusive [inhibitor, single point]
34 | CCOc1cc(CNC(C)(C)C)ccc1OCC(=O)Nc1cccc(C(F)(F)F)c1 | active: 6.57 µM
35 | COc1cccc(-c2c(-c3cc(OC)cc(OC)c3)n(C)c3ccc(-c4ccc(OC)nc4)cc23)c1 | inconclusive [inhibitor, partial curve]
36 | CCN1CCN(c2ccc(S(=O)(=O)N3CCCCC3)cc2NC(=O)COc2ccccc2)CC1 | active: 11.7 µM
37 | COc1ccccc1NC(=S)N(CCN1CCCCCC1)Cc1cccs1 | inactive
38 | Cc1ccc(C)c(Cn2c(=O)n(CCC(=O)NCc3ccco3)c(=O)c3ccccc32)c1 | inconclusive [inhibitor, single point]
39 | Cc1ccsc1/C=N/Nc1nc(=O)[nH]nc1C | inconclusive [inhibitor, full curve, poor fit]
40 | COCCNC(=O)CN1C(=O)C(C)N=C(c2ccccc2)c2cc(Cl)ccc21 (stereo not given) | inconclusive [inhibitor, partial curve]
41 | OC(c1cc(C(F)(F)F)nc2c(Cl)cc(Cl)cc12)C1CCCCN1 (stereo not given) | active: 0.0131 µM
42 | CCN(CC)CCN(C(=O)c1cc2c(ccc3ccccc32)oc1=O)c1nc2cc3c(cc2s1)OCCO3 | inactive
43 | CN1/C(=C/C=C(C#N)C#N)C(C)(C)c2ccccc21 | inactive
44 | O=C(NCc1ccco1)c1c(F)c(F)c(F)c(C(=O)NCc2ccco2)c1F | inactive
45 | CCOC(=O)C1CCN(Cc2cc(=O)oc3c(C)c(C)ccc23)CC1 | inconclusive [inhibitor, partial curve, poor fit]
46 | CC(C)CNc1nc(N)c([N+](=O)[O-])c(NCC2CCCO2)n1 (stereo not given) | inconclusive [inhibitor, partial curve, poor fit]
47 | COc1ccc(/C=N/NC(=O)c2ccco2)cc1OCc1ccccc1 | active: 8.28 µM
48 | Cc1c(OCC(=O)NCC2CCC(C(=O)NCCCO)CC2)ccc2c(-c3ccccc3)cc(=O)oc12 (stereo not given) | inconclusive [inhibitor, partial curve, poor fit]

Row | SMILES | Potency
49 | COc1cc2c(cc1OC)CN(C(=O)c1ccc(OC)c([N+](=O)[O-])c1)CC2 | inconclusive [inhibitor, partial curve, poor fit]
50 | O=C(NC1CCCCC1)c1cc([N+](=O)[O-])ccc1N1CCCCC1 | inconclusive [inhibitor, single point]
51 | CCCCn1c(N)c(N(CCOC)C(=O)c2ccc(NC3CC3)c([N+](=O)[O-])c2)c(=O)[nH]c1=O | inconclusive [inhibitor, single point]
52 | COc1ccc(Cl)cc1Nc1nc(C)cc(=O)[nH]1 | inactive
53 | COc1cc(C2Nc3ccc4ncccc4c3C3=C2C(=O)CCC3)cc(OC)c1OC (stereo not given) | inconclusive [inhibitor, single point]
54 | CC(C)(C)c1cc[n+](-c2nc([O-])sc2C=O)cc1 | inconclusive [inhibitor, partial curve, poor fit]
55 | Cc1cc(C(=O)NC2CCCN(Cc3ccc(Cl)cc3)C2)c(C)o1 (stereo not given) | active: 10.4 µM
56 | C=CCn1nc(-c2ccccc2)c(N2CCCCC2)cc1=O | inconclusive [inhibitor, partial curve, poor fit]
57 | O=C(c1ccc(Cl)cc1)N1CCN(c2ccnc3cc(Cl)ccc23)CC1 | active: 13.1 µM
58 | COc1cc(C2CC(=O)N(c3ccc(C)cc3)C(=O)C2)cc(OC)c1OC | inconclusive [inhibitor, single point]
59 | O=C(O)CCSc1nnc(COc2cccc3ccccc23)n1-c1cccc(Cl)c1 | inconclusive [inhibitor, partial curve, poor fit]
60 | CCN(CC(=O)Nc1ccc(OC)cc1)C(=O)CSCC(=O)Nc1cc(C)on1 | inactive
61 | COc1cccc(N2C(=NC(=O)CCc3ccccc3)SC3CS(=O)(=O)CC32)c1 (stereo not given) | inactive
62 | COc1ccc(S(=O)(=O)Oc2ccc(C(=S)N3CCOCC3)cc2OC)cc1 | inactive
63 | O=C(NCc1ccccc1F)C1CCCN(S(=O)(=O)c2ccc(-n3cnnn3)cc2)C1 (stereo not given) | inactive
64 | O=C(COC(=O)c1cc([N+](=O)[O-])ccc1NCCO)c1ccc(Cl)cc1 | inconclusive [inhibitor, single point]
65 | COc1ccc(OC)c(NC(=O)[C@@H]2CCCN2C(=O)c2cccs2)c1 | inactive
66 | CCN1CCN(C(=O)Nc2ccccc2OC)CC1 | inconclusive [inhibitor, partial curve, poor fit]
67 | CCOc1ccccc1N(CC(=O)N1CCC(C)CC1)S(=O)(=O)c1ccc(C)cc1 | inconclusive [inhibitor, single point]
68 | CC(C)NC(=O)c1sc2c(c1C(=O)Nc1cccnc1)CCCC2 | inconclusive [inhibitor, single point]
69 | O=S1(=O)CCO[C@H]2Cc3ccccc3[C@H]2N1Cc1ccccc1F | inactive
70 | O=C1N(c2ccccc2)c2ccccc2C1(O)C(F)(F)F (stereo not given) | inactive
